# Some of the results follow.
# B1: Clec49 (Caenorhabditis elegans) (protein)
# chain: MTRLTLLLFGLLGAATAQTCNTGGIYNEQFNRCYQYFTAPAQFSFAEQQCNLLGGHLASVQNGQENALLQSNAANSFKRSNYSDYWIGATDLETSGTWKWTDPSVTFDYSNWQLGEPQSGSDCAIQDKGDGTWSAIGCTSYRPYVCVTPVIMTATCPPITTPIPTTCPTPAPCPIKQCVPSCDQGWTYFSPTDFCYRVYHGEKFNDAEASCVLLGGHLASIHSLTENTFVNNIASCGIKEGKYEHLAWIGMRKVGQDWVWTDGTPSDYFNWAPKQPDNPKKELCVQTAPDLSHDKWYENWNNLECNEVMRAYICKKASIHN
# Tests used:
# Assay in all cases: glycan array binding signal (z-score within array); higher = stronger binding
# Settings in all cases: glycan notation: IUPAC condensed, linker removed
# [1] = biological target: Gal(b1-4)GlcNAc(b1-6)GalNAc
# Method in brief: (§1)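 Glycan array data came from 3228 arrays in the Consortium for Functional Glycomics database, and only arrays with an available protein sequence were kept. Glycan names were put into IUPAC-condensed notation, and columns mapping to the same glycan were averaged. The binding signal is a within-array Z-score, averaged across arrays of one protein sequence run at different concentrations or buffers and across linkers. A negative Z-score can be read as non-binding.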
# [2] = biological target: Gal(b1-4)GlcNAc(b1-6)[Gal(b1-3)]GalNAc
# Method in brief: as §1
# [3] = biological target: Gal(b1-4)GlcNAc(b1-6)[Gal(b1-4)GlcNAc(b1-3)]GalNAc
# Method in brief: as §1
# Gal(b1-4)GlcNAc6P = biological target: Gal(b1-4)GlcNAc6P
# Method in brief: as §1
# Gal(b1-6)Gal = biological target: Gal(b1-6)Gal
# Method in brief: as §1
# Gal3S(b1-3)GalNAc = biological target: Gal3S(b1-3)GalNAc
# Method in brief: as §1
# Gal3S(b1-3)GlcNAc = biological target: Gal3S(b1-3)GlcNAc
# Method in brief: as §1
# [4] = biological target: Gal3S(b1-3)[Fuc(a1-4)]GlcNAc
# Method in brief: as §1
# Gal3S(b1-4)Glc = biological target: Gal3S(b1-4)Glc
# Method in brief: as §1
# Gal3S(b1-4)Glc6S = biological target: Gal3S(b1-4)Glc6S
# Method in brief: as §1
# Gal3S(b1-4)GlcNAc = biological target: Gal3S(b1-4)GlcNAc
# Method in brief: as §1
# [5] = biological target: Gal3S(b1-4)[Fuc(a1-3)]Glc6S
# Method in brief: as §1
# [6] = biological target: Gal3S(b1-4)[Fuc(a1-3)]GlcNAc
# Method in brief: as §1
# [7] = biological target: Gal3S(b1-4)[Fuc(a1-3)]GlcNAc6S
# Method in brief: as §1
# Gal3S4S(b1-4)GlcNAc = biological target: Gal3S4S(b1-4)GlcNAc
# Method in brief: as §1
# Gal3S6S(b1-4)GlcNAc = biological target: Gal3S6S(b1-4)GlcNAc
# Method in brief: as §1
# Gal3S6S(b1-4)GlcNAc6S = biological target: Gal3S6S(b1-4)GlcNAc6S
# Method in brief: as §1
# Gal4S(b1-4)GlcNAc = biological target: Gal4S(b1-4)GlcNAc
# Method in brief: as §1
# Gal4S6S(b1-4)GlcNAc = biological target: Gal4S6S(b1-4)GlcNAc
# Method in brief: as §1
# Gal6P(b1-4)GlcNAc = biological target: Gal6P(b1-4)GlcNAc
# Method in brief: as §1
# Gal6S(b1-3)GlcNAc = biological target: Gal6S(b1-3)GlcNAc
# Method in brief: as §1
# Gal6S(b1-3)GlcNAc6S = biological target: Gal6S(b1-3)GlcNAc6S
# Method in brief: as §1
# Gal6S(b1-4)Glc = biological target: Gal6S(b1-4)Glc
# Method in brief: as §1
# Gal6S(b1-4)Glc6S = biological target: Gal6S(b1-4)Glc6S
# Method in brief: as §1
# Gal6S(b1-4)GlcNAc = biological target: Gal6S(b1-4)GlcNAc
# Method in brief: as §1
# Gal6S(b1-4)GlcNAc6S = biological target: Gal6S(b1-4)GlcNAc6S
# Method in brief: as §1
# GalNAc(a1-3)Gal = biological target: GalNAc(a1-3)Gal
# Method in brief: as §1
# GalNAc(a1-3)GalNAc = biological target: GalNAc(a1-3)GalNAc
# Method in brief: as §1
# [8] = biological target: GalNAc(a1-3)GalNAc(b1-3)Gal(a1-4)Gal(b1-4)Glc
# Method in brief: as §1
# [9] = biological target: GalNAc(a1-3)GalNAc(b1-3)Gal(a1-4)Gal(b1-4)GlcNAc
# Method in brief: as §1
# GalNAc(b1-3)Gal = biological target: GalNAc(b1-3)Gal
# Method in brief: as §1
# [10] = biological target: GalNAc(b1-3)Gal(a1-4)Gal(b1-4)GlcNAc
# Method in brief: as §1
# [11] = biological target: GalNAc(b1-3)Gal(a1-4)Gal(b1-4)GlcNAc(b1-3)Gal(b1-4)Glc
# Method in brief: as §1
# [12] = biological target: GalNAc(b1-3)Gal(a1-6)Gal(b1-4)Glc
# Method in brief: as §1
# GalNAc(b1-3)GalNAc = biological target: GalNAc(b1-3)GalNAc
# Method in brief: as §1
# GalNAc(b1-3)GlcNAc = biological target: GalNAc(b1-3)GlcNAc
# Method in brief: as §1
# GalNAc(b1-4)Gal(b1-4)Glc = biological target: GalNAc(b1-4)Gal(b1-4)Glc
# Method in brief: as §1
# GalNAc(b1-4)GlcNAc = biological target: GalNAc(b1-4)GlcNAc
# Method in brief: as §1
binder,measurement,setting,value
B1,glycan array binding signal (z-score),[1],-0.076
same,glycan array binding signal (z-score),[2],0.61
same,glycan array binding signal (z-score),[3],-0.553
same,glycan array binding signal (z-score),Gal(b1-4)GlcNAc6P,-0.471
same,glycan array binding signal (z-score),Gal(b1-6)Gal,-0.558
same,glycan array binding signal (z-score),Gal3S(b1-3)GalNAc,-0.362
same,glycan array binding signal (z-score),Gal3S(b1-3)GlcNAc,-0.889
same,glycan array binding signal (z-score),[4],-0.107
same,glycan array binding signal (z-score),Gal3S(b1-4)Glc,0.865
same,glycan array binding signal (z-score),Gal3S(b1-4)Glc6S,-0.313
same,glycan array binding signal (z-score),Gal3S(b1-4)GlcNAc,-0.603
same,glycan array binding signal (z-score),[5],-0.488
same,glycan array binding signal (z-score),[6],-0.647
same,glycan array binding signal (z-score),[7],-0.271
same,glycan array binding signal (z-score),Gal3S4S(b1-4)GlcNAc,-0.596
same,glycan array binding signal (z-score),Gal3S6S(b1-4)GlcNAc,-0.612
same,glycan array binding signal (z-score),Gal3S6S(b1-4)GlcNAc6S,0.736
same,glycan array binding signal (z-score),Gal4S(b1-4)GlcNAc,-0.522
same,glycan array binding signal (z-score),Gal4S6S(b1-4)GlcNAc,-0.639
same,glycan array binding signal (z-score),Gal6P(b1-4)GlcNAc,0.217
same,glycan array binding signal (z-score),Gal6S(b1-3)GlcNAc,-0.081
same,glycan array binding signal (z-score),Gal6S(b1-3)GlcNAc6S,0.716
same,glycan array binding signal (z-score),Gal6S(b1-4)Glc,0.093
same,glycan array binding signal (z-score),Gal6S(b1-4)Glc6S,-0.366
same,glycan array binding signal (z-score),Gal6S(b1-4)GlcNAc,-0.068
same,glycan array binding signal (z-score),Gal6S(b1-4)GlcNAc6S,0.322
same,glycan array binding signal (z-score),GalNAc(a1-3)Gal,-0.207
same,glycan array binding signal (z-score),GalNAc(a1-3)GalNAc,-0.595
same,glycan array binding signal (z-score),[8],0.137
same,glycan array binding signal (z-score),[9],0.019
same,glycan array binding signal (z-score),GalNAc(b1-3)Gal,-0.427
same,glycan array binding signal (z-score),[10],0.122
same,glycan array binding signal (z-score),[11],-0.551
same,glycan array binding signal (z-score),[12],-0.871
same,glycan array binding signal (z-score),GalNAc(b1-3)GalNAc,0.425
same,glycan array binding signal (z-score),GalNAc(b1-3)GlcNAc,-0.016
same,glycan array binding signal (z-score),GalNAc(b1-4)Gal(b1-4)Glc,-0.239
same,glycan array binding signal (z-score),GalNAc(b1-4)GlcNAc,-0.349
